This is one part of the list.
B1: PhoQ; a variant is named by its letters at X, in order, P23837 (parent)
chain: MKKLLRLFFPLSLRVRFLLATAAVVLVLSLAYGMVALIGYSVSFDKTTFRLLRGESNLFYTLAKWENNKLHVELPENIDKQSPTMTLIYDENGQLLWAQRDVPWLMKMIQPDWLKSNGFHEIEADVNDTSLLLSGDHSIQQQLQEVREDDDDAEMTHSVAVNVYPATSRMPKLTIVVVDTIPVELKSSYMVWSWFIYVLSANLLLVIPLLWVAAWWSLRPIEALAKEVRELEEHNRELLNPATTRELTSLVRNLNRLLKSERERYDKYRTTLTDLTHSLKTPLXXLQXXLRSLRSEKMSVSDAEPVMLEQISRISQQIGYYLHRASMRGGTLLSRELHPVAPLLDNLTSALNKVYQRKGVNISLDISPEISFVGEQNDFVEVMGNVLDNACKYCLEFVEISARQTDEHLYIVVEDDGPGIPLSKREVIFDRGQRVDTLRPGQGVGLAVAREITEQYEGKIVAGESMLGGARMEVIFGRQHSAPKDE

Variants of: B1
Assay: enrichment ratio after two sorts for PhoP signalling (ratio (wild type AVST 3.29)); higher = more functional
Details: with PhoP (E. coli)

| Variant | enrichment ratio |
| --- | --- |
| VCAW | ≤ 0.25 |
| EFYE | ≤ 0.25 |
| DMVQ | ≤ 0.25 |
| ELTC | ≤ 0.25 |
| ATWM | ≤ 0.25 |
| AIVY | 4.39 |
| PIRV | ≤ 0.25 |
| HKAT | ≤ 0.25 |
| ENPI | ≤ 0.25 |
| CRSV | ≤ 0.25 |
| QKCG | ≤ 0.25 |
| IMWY | ≤ 0.25 |
| SIAS | 7.5 |
| PIVS | ≤ 0.25 |
| ITLC | 2.87 |
| PSIH | ≤ 0.25 |
| DFPF | ≤ 0.25 |
| YNWP | ≤ 0.25 |
| PISD | ≤ 0.25 |
| NFCG | ≤ 0.25 |
| GPTT | ≤ 0.25 |
| LKQK | ≤ 0.25 |
| YLYL | ≤ 0.25 |
| DMPW | ≤ 0.25 |

| Variant | enrichment ratio |
| --- | --- |
| HCCL | ≤ 0.25 |
| GPWL | ≤ 0.25 |
| SQWG | ≤ 0.25 |
| YADF | ≤ 0.25 |
| GVTP | ≤ 0.25 |
| LIKI | ≤ 0.25 |
| WQYK | ≤ 0.25 |
| EQSY | ≤ 0.25 |
| NYTS | ≤ 0.25 |
| DGAQ | ≤ 0.25 |
| YWPS | ≤ 0.25 |
| KDTV | ≤ 0.25 |
| ACVY | ≤ 0.25 |
| KSFR | ≤ 0.25 |
| WQFQ | ≤ 0.25 |
| GISK | 4.87 |
| WGGI | ≤ 0.25 |
| WHNW | ≤ 0.25 |
| MCCT | ≤ 0.25 |
| SVSS | 10.1 |
| QSHW | ≤ 0.25 |
| KAVE | ≤ 0.25 |
| KRRH | ≤ 0.25 |
| WNKY | ≤ 0.25 |

| Variant | enrichment ratio |
| --- | --- |
| WYAQ | ≤ 0.25 |
| IRIS | ≤ 0.25 |
| IWGD | ≤ 0.25 |
| GQQG | ≤ 0.25 |
| LAHS | ≤ 0.25 |
| QSYG | 8.26 |
| AWWH | ≤ 0.25 |
| LSQL | ≤ 0.25 |
| RCLG | ≤ 0.25 |
| KQCL | ≤ 0.25 |
| TGIT | ≤ 0.25 |
| RPRH | ≤ 0.25 |
| SHTE | ≤ 0.25 |
| VPNT | ≤ 0.25 |
| NFAI | ≤ 0.25 |
| VVTY | ≤ 0.25 |
| YGSK | ≤ 0.25 |
| ICVF | ≤ 0.25 |
| IGQR | ≤ 0.25 |
| NKVG | ≤ 0.25 |
| QDKF | ≤ 0.25 |
| HSTK | ≤ 0.25 |
| SDTQ | ≤ 0.25 |
| EDWV | ≤ 0.25 |

| Variant | enrichment ratio |
| --- | --- |
| PLHR | ≤ 0.25 |
| DTKG | ≤ 0.25 |
| HPWK | ≤ 0.25 |
| FYSP | ≤ 0.25 |
| HPTK | ≤ 0.25 |
| VGKG | ≤ 0.25 |
| QWVA | ≤ 0.25 |
| LIMW | ≤ 0.25 |
| IHAW | ≤ 0.25 |
| LAIG | ≤ 0.25 |
| VQEI | ≤ 0.25 |
| FITW | 0.679 |
| THCM | 6.31 |
| RSRV | ≤ 0.25 |
| WTGF | ≤ 0.25 |
| GFIK | ≤ 0.25 |
| HNHV | ≤ 0.25 |
| EDAI | ≤ 0.25 |
| RVLL | ≤ 0.25 |
| AHWF | ≤ 0.25 |
| IEFC | ≤ 0.25 |
| ISNL | ≤ 0.25 |
| MSKS | ≤ 0.25 |
| GPWS | ≤ 0.25 |

| Variant | enrichment ratio |
| --- | --- |
| MTDV | ≤ 0.25 |
| VLNG | ≤ 0.25 |
| RYTY | ≤ 0.25 |
| IAMW | ≤ 0.25 |
| VIAV | ≤ 0.25 |
| TVMM | 0.563 |
| LMHR | 0.29 |
| EIGF | 17.3 |
| NWRA | ≤ 0.25 |
| KASH | ≤ 0.25 |
| GHLQ | ≤ 0.25 |
| FHDV | ≤ 0.25 |
| TGEV | 26.6 |
| WGIY | ≤ 0.25 |
| YSQT | ≤ 0.25 |
| LHIP | ≤ 0.25 |
| STTY | 7.54 |
| WTHG | ≤ 0.25 |
| FLQF | ≤ 0.25 |
| LYNC | ≤ 0.25 |
| KTYF | ≤ 0.25 |
| YHVR | ≤ 0.25 |
| AFPR | ≤ 0.25 |
| DWLP | ≤ 0.25 |

| Variant | enrichment ratio |
| --- | --- |
| PMWL | ≤ 0.25 |
| GKEI | ≤ 0.25 |
| IFPF | ≤ 0.25 |
| QEGF | ≤ 0.25 |
| VYFQ | ≤ 0.25 |
| RHQM | ≤ 0.25 |
| NDPS | ≤ 0.25 |
| ANNP | ≤ 0.25 |
| TAIC | ≤ 0.25 |
| MGLP | ≤ 0.25 |
| DQTW | ≤ 0.25 |
| WHWL | ≤ 0.25 |
| HKVM | ≤ 0.25 |
| VRCC | ≤ 0.25 |
| TVFQ | ≤ 0.25 |
| IMVT | ≤ 0.25 |
| DCMT | ≤ 0.25 |
| VTRK | ≤ 0.25 |
| FAEN | ≤ 0.25 |
| HCRQ | ≤ 0.25 |
| PPSI | ≤ 0.25 |
| RKLY | ≤ 0.25 |
| FVHI | ≤ 0.25 |
| MMLA | ≤ 0.25 |

| Variant | enrichment ratio |
| --- | --- |
| FPLL | ≤ 0.25 |
| IQWK | ≤ 0.25 |
| ISNR | ≤ 0.25 |
| WHGV | ≤ 0.25 |
| ETHG | ≤ 0.25 |
| SNYV | 0.433 |
| VAYT | ≤ 0.25 |
| YVYI | ≤ 0.25 |
| PHVN | ≤ 0.25 |
| KLWV | ≤ 0.25 |
| HNGL | ≤ 0.25 |
| YVLR | ≤ 0.25 |
| SNSF | 10.8 |
| VGCH | 3.36 |
| MESI | 12.5 |
| NCSE | ≤ 0.25 |
| VEAY | ≤ 0.25 |
| GAVW | ≤ 0.25 |
| WRLL | ≤ 0.25 |
| RHHL | 0.334 |
| GPNW | ≤ 0.25 |
| QKFE | ≤ 0.25 |
| FEDL | ≤ 0.25 |
| TKIQ | 4.3 |

| Variant | enrichment ratio |
| --- | --- |
| ENYY | ≤ 0.25 |
| IRLN | ≤ 0.25 |
| ASKA | ≤ 0.25 |
| HYQE | ≤ 0.25 |
| YYNE | ≤ 0.25 |
| SDPG | ≤ 0.25 |
| QPLN | ≤ 0.25 |
| FCFL | ≤ 0.25 |
| VREE | ≤ 0.25 |
| NLKG | ≤ 0.25 |
| SCQF | 7.66 |
| LNKY | ≤ 0.25 |
| SKIE | ≤ 0.25 |
| AKNF | ≤ 0.25 |
| RLSN | ≤ 0.25 |
| DHWL | ≤ 0.25 |
| SESW | ≤ 0.25 |
| FAMA | ≤ 0.25 |
| TVYF | ≤ 0.25 |
| ERHP | ≤ 0.25 |
| LNWS | ≤ 0.25 |
| LQKP | ≤ 0.25 |
| TMWC | ≤ 0.25 |
| WELY | ≤ 0.25 |

| Variant | enrichment ratio |
| --- | --- |
| EFSV | ≤ 0.25 |
| FLYK | ≤ 0.25 |
| TATL | 16.3 |
| VISQ | ≤ 0.25 |
| KTRP | ≤ 0.25 |
| ICNQ | ≤ 0.25 |
| MIRA | ≤ 0.25 |
| RCSI | ≤ 0.25 |
| DACN | ≤ 0.25 |
| KILF | ≤ 0.25 |
| EFCF | ≤ 0.25 |
| IIYH | ≤ 0.25 |
| VSLE | 2.79 |
| EVPT | ≤ 0.25 |
| VHDS | ≤ 0.25 |
| HQHK | ≤ 0.25 |
| ICRQ | ≤ 0.25 |
| GKWL | ≤ 0.25 |
| NPSE | ≤ 0.25 |
| FLPY | ≤ 0.25 |
| QYGM | ≤ 0.25 |
| TGKI | ≤ 0.25 |
| HAMQ | ≤ 0.25 |
| GLIH | ≤ 0.25 |

| Variant | enrichment ratio |
| --- | --- |
| WGLL | 6.16 |
| MKFF | 1.09 |
| MGFM | 9.14 |
| RRQK | ≤ 0.25 |
| ENHL | ≤ 0.25 |
| NHNS | ≤ 0.25 |
| LAWF | ≤ 0.25 |
| MPAD | ≤ 0.25 |
| WTRG | ≤ 0.25 |
| VHKI | ≤ 0.25 |
| SFNH | ≤ 0.25 |
| WHSD | ≤ 0.25 |
| HVAW | ≤ 0.25 |
| VSPH | ≤ 0.25 |
| DWTS | ≤ 0.25 |
| AALK | 12 |
| IQIY | ≤ 0.25 |
| KRMV | ≤ 0.25 |
| DAIS | ≤ 0.25 |
| KCSG | ≤ 0.25 |
| ARTI | 0.912 |
| PPHI | ≤ 0.25 |
| TYVR | ≤ 0.25 |
| NLCC | ≤ 0.25 |

| Variant | enrichment ratio |
| --- | --- |
| TPPW | ≤ 0.25 |
| KHAI | ≤ 0.25 |
| YCCN | 0.253 |
| NFAC | ≤ 0.25 |
| FAIV | ≤ 0.25 |
| ATGT | ≤ 0.25 |
| TGMM | 16 |
| TWCE | ≤ 0.25 |
| HRCM | ≤ 0.25 |
| WNTG | ≤ 0.25 |
| GRRF | ≤ 0.25 |
| WPGT | ≤ 0.25 |
| VVHH | ≤ 0.25 |
| VGHH | ≤ 0.25 |
| VRSY | ≤ 0.25 |
| SNPH | ≤ 0.25 |
| HNFR | ≤ 0.25 |
| FGDE | ≤ 0.25 |
| SHHG | ≤ 0.25 |
| ALWE | ≤ 0.25 |
| KYIR | ≤ 0.25 |
| EPYP | ≤ 0.25 |
| KFMR | ≤ 0.25 |
| DFGF | ≤ 0.25 |

| Variant | enrichment ratio |
| --- | --- |
| KNPL | ≤ 0.25 |
| QVHM | ≤ 0.25 |
| RHAL | ≤ 0.25 |
| MEGN | 10.8 |
| ILGA | ≤ 0.25 |
| HKRD | ≤ 0.25 |
| AWLV | ≤ 0.25 |
| IQES | ≤ 0.25 |
| YRII | ≤ 0.25 |
| LAWT | ≤ 0.25 |
| ITMT | ≤ 0.25 |
| DTYA | ≤ 0.25 |
| MEAH | 28.9 |
| NHPI | ≤ 0.25 |
| QMPY | ≤ 0.25 |
| GQVR | ≤ 0.25 |
| PMKL | ≤ 0.25 |
| TAVI | ≤ 0.25 |
| ACNW | ≤ 0.25 |
| DMGH | ≤ 0.25 |
| CIST | ≤ 0.25 |
| ISWE | ≤ 0.25 |
| SGLM | 17.9 |
| SPDG | ≤ 0.25 |

| Variant | enrichment ratio |
| --- | --- |
| MHFR | 0.537 |
| SRNF | ≤ 0.25 |
| QVIR | ≤ 0.25 |
| SSFT | ≤ 0.25 |
| MDKT | ≤ 0.25 |
| SCLI | 6.18 |
| SLCC | 8.22 |
| MEER | ≤ 0.25 |
| TTRF | ≤ 0.25 |
| GYEW | ≤ 0.25 |
| MHLF | ≤ 0.25 |
| RRTL | ≤ 0.25 |
| FTEW | ≤ 0.25 |
| IDFH | ≤ 0.25 |
| MTKA | ≤ 0.25 |
| HEKA | ≤ 0.25 |
| LTVC | ≤ 0.25 |
| SPMV | ≤ 0.25 |

Reference: a collection of fitness landscapes (doi:10.1126/science.1257360)
